Data published in PubChem BioAssay AID220 (DTP/NCI, 2004).
Inconclusive results are not listed. Certain results were filed several times, with different values. The list is limited to them. There may be further records. The records of an entry differ, and nothing given here explains why; some may be repeats, others may stem from another dose, organism or construct than stated. Starred links: 1 amine or outer side, 2 acyl side, 3 side chain; linkers in the order of their positions; H or OH if unused. Positions of bridges follow the written chain, without caps; N, C: chain ends. Non-standard residues stand in square brackets, D forms with d. Residues, ends and D or L forms follow the SMILES beside them. Chains are numbered I, II in the order given. Actinocin(1to9) = Cc1c2oc3c(C)ccc(C(=O)[*:2])c3nc-2c(C(=O)[*:1])c(N)c1=O; NMeV = CN[CH](C(=O)O)C(C)C; Aze = O=C(O)[CH]1CCN1; Sar = CNCC(=O)O

Tested on: CD8F1 mice, subcutaneous mammary adenocarcinoma, T/C%
Test: NCI In Vivo Anticancer Drug Screen. Data for tumor model Mammary Adenocarcinoma CD8F1 (subcutaneous) in CD8F1
Conditions: higher = larger tumour
Procedure: The antitumor activity of compounds was measured in mice bearing transplantable tumors. Survival or tumor size were measured and the results are expressed as the measurement made in the treated group (T) divided by the measurement made in the vehicle treated control group (C). The tumor model used in this assay is Mammary Adenocarcinoma CD8F1 (subcutaneous) in CD8F1

[1] = endpoint: median tumor weight change, dose: 250.0 mg/kg/injection, schedule: Q01DX001 (ip), vehicle: saline with Tween-80
[2] = endpoint: median tumor weight change, dose: 500.0 mg/kg/injection, schedule: Q01DX001 (ip), vehicle: saline with Tween-80
[3] = endpoint: median tumor weight change, dose: 1000.0 mg/kg/injection, schedule: Q01DX001 (ip), vehicle: saline with Tween-80

O=C(Nc1nncs1)c1cccs1
T/C [1]: 90 % of control and 163 % of control | T/C [2]: 30 % of control, 84 % of control, 95 % of control | T/C [3]: 30 % of control, 74 % of control, 83 % of control | T/C (endpoint: median tumor weight change, dose: 2000.0 mg/kg/injection, schedule: Q01DX001 (ip), vehicle: saline with Tween-80): 8 % of control, 34 % of control, 52 % of control

O=NN(CCCl)C(=O)NC1CCCCC1
T/C (endpoint: median tumor weight change, dose: 20.0 mg/kg/injection, schedule: Q01DX001 (ip), vehicle: Klucel (hydroxypropylcellulose) (HPC)): 42 % of control and 75 % of control | T/C (endpoint: median tumor weight change, dose: 40.0 mg/kg/injection, schedule: Q01DX001 (ip), vehicle: Klucel (hydroxypropylcellulose) (HPC)): -55 % of control and 25 % of control

Cc1oc2c(C)c3oc(=O)cc(C)c3cc2c1CCl
T/C (endpoint: median tumor weight change, dose: 62.5 mg/kg/injection, schedule: Q01DX001 (ip), vehicle: saline with Tween-80): 19 % of control and 62 % of control | T/C [2]: 23 % of control, 29 % of control, 103 % of control

O=C1c2ccccc2C(=O)c2c(NCCNCCO)ccc(NCCNCCO)c21
T/C (endpoint: median tumor weight (est.), dose: 8.0 mg/kg/injection, schedule: Q07DX005 (ip), vehicle: water): 64 % of control, 89 % of control, 104 % of control | T/C (endpoint: median tumor weight (est.), dose: 16.0 mg/kg/injection, schedule: Q07DX005 (ip), vehicle: water): 51 % of control, 68 % of control, 83 % of control | T/C (endpoint: median tumor weight (est.), dose: 32.0 mg/kg/injection, schedule: Q07DX005 (ip), vehicle: water): 41 % of control, 56 % of control, 80 % of control

Cc1c2oc3c(C)ccc(C(=O)NC4C(=O)NC(C(C)C)C(=O)N5CCCC5C(=O)N(C)CC(=O)N(C)C(C(C)C)C(=O)OC4C)c3nc-2c(C(=O)NC2C(=O)NC(C(C)C)C(=O)N3CCC3C(=O)N(C)CC(=O)N(C)C(C(C)C)C(=O)OC2C)c(N)c1=O (stereo unspecified) (I: TV[Aze][Sar][NMeV] / II: TVP[Sar][NMeV]; ester I:1-I:C, II:1-II:C; linker I:N-II:N via Actinocin(1to9); configuration not given here)
T/C (endpoint: median tumor weight (est.), dose: 75.0 micrograms/kg/injection, schedule: Q07DX005 (ip), vehicle: saline + alcohol): 12 % of control and 64 % of control | T/C (endpoint: median tumor weight (est.), dose: 150.0 micrograms/kg/injection, schedule: Q07DX005 (ip), vehicle: saline + alcohol): 35 % of control and 108 % of control

CCCCOC(=O)/C=C(\Br)C(=O)OCCCC
T/C (endpoint: median tumor weight (est.), dose: 50.0 mg/kg/injection, schedule: Q07DX005 (ip), vehicle: saline with Tween-80): 86 % of control and 160 % of control

O=C(C/C(=N\C(=S)Nc1cc(C(F)(F)F)ccc1Cl)NO)N1CCCC1
T/C [1]: 82 % of control and 115 % of control | T/C [2]: 39 % of control and 120 % of control | T/C [3]: 15 % of control and 78 % of control

ClCCCN1CCCCC1CCl (stereo unspecified)
T/C (endpoint: median tumor weight (est.), dose: 12.5 mg/kg/injection, schedule: Q07DX005 (ip), vehicle: saline): 45 % of control and 95 % of control

Cc1[nH]c(=O)[nH]c(=O)c1N(CCF)CCCl
T/C (endpoint: median tumor weight change, dose: 50.0 mg/kg/injection, schedule: Q01DX001 (ip), vehicle: Klucel (hydroxypropylcellulose) (HPC)): 1 % of control, 17 % of control, 44 % of control

CCC(C(=O)O)C(=O)O.[NH2-].[NH2-].[Pt+2]
T/C (endpoint: median tumor weight change, dose: 250.0 mg/kg/injection, schedule: Q01DX001 (ip), vehicle: saline): -64 % of control and -6 % of control

CC(C)NCC(O)COc1ccc(O)c(O)c1 (stereo unspecified)
T/C (endpoint: median tumor weight change, dose: 3.0 mg/kg/injection, schedule: Q01DX001 (ip), vehicle: saline): 85 % of control and 152 % of control

CN(C)c1nc(N(C)C)nc(N(C)C)n1
T/C (endpoint: mean tumor weight, dose: 500.0 mg/kg/injection, schedule: Q07DX006 (ip), vehicle: saline): 38 % of control and 100 % of control | T/C (endpoint: median tumor weight (est.), dose: 128.0 mg/kg/injection, schedule: Q07DX005 (ip), vehicle: saline with Tween-80): 22 % of control and 65 % of control | T/C (endpoint: median tumor weight (est.), dose: 256.0 mg/kg/injection, schedule: Q07DX005 (ip), vehicle: saline with Tween-80): 38 % of control and 167 % of control | T/C (endpoint: median tumor weight change, dose: 400.0 mg/kg/injection, schedule: Q01DX001 (ip), vehicle: acid diluted with saline): 50 % of control and 90 % of control

COC(=O)C[C@](O)(CCC(C)(C)O)C(=O)O[C@@H]1C(OC)=C[C@]23CCCN2CCc2cc4c(cc2[C@H]13)OCO4
T/C (endpoint: median tumor weight change, dose: 5.0 mg/kg/injection, schedule: Q01DX001 (ip), vehicle: saline): 59 % of control and 113 % of control
